Measured values reported in patent publication US20210163595A1 (CELGENE, published 2021).

B1: PD1AB-6-K3 (antibody, human IgG1, kappa)
heavy: EVQLVQSGAEVKKPGATVKISCKASGFNIKDTYMHWVQQAPGKGLEWMGRIDPANGDRKYDPKFQGRVTITADTSTDTAYMELSSLRSEDTAVYYCARSGPVYYYGSSYVMDYWGQGTTVTVSS[human IgG1 constant region with changes omitted here]
light: DIVMTQSPDSLAVSLGERATINCKSGQSVLYSSNQKNFLAWYQQKPGQPPKLLIYWASTRESGVPDRFSGSGSGTDFTLTISSLQAEDVAVYYCHQYLYSWTFGQGTKLEIKRTVAAPSVFIFPPSDEQLKSGTASVVCLLNNFYPREAKVQWKVDNALQSGNSQESVTEQDSKDSTYSLSSTLTLSKADYEKHKVYACEVTHQGLSSPVTKSFNRGEC
B2: PD1AB-6-4P (antibody, human IgG4 S228P, kappa)
heavy: EVQLVQSGAEVKKPGATVKISCKASGFNIKDTYMHWVQQAPGKGLEWMGRIDPANGDRKYDPKFQGRVTITADTSTDTAYMELSSLRSEDTAVYYCARSGPVYYYGSSYVMDYWGQGTTVTVSSASTKGPSVFPLAPCSRSTSESTAALGCLVKDYFPEPVTVSWNSGALTSGVHTFPAVLQSSGLYSLSSVVTVPSSSLGTKTYTCNVDHKPSNTKVDKRV[human IgG4 Fc with S228P L445P (EU numbers) omitted here]
light: B1 light
notes: also called IgG4P-PD1AB-6
B3: PD1AB-6-IgG1 (antibody)
heavy: EVQLVQSGAEVKKPGATVKISCKASGFNIKDTYMHWVQQAPGKGLEWMGRIDPANGDRKYDPKFQGRVTITADTSTDTAYMELSSLRSEDTAVYYCARSGPVYYYGSSYVMDYWGQGTTVTVSS[human IgG1 constant region omitted here]
light: B1 light
notes: also called IgG1_PD1AB-6; IgG1-PD1AB-6

Key:
[1] = target: T1, cyno PD-1 expressed on cells (cynomolgus monkey, UniProt B0LAJ3 25-288); assay: cell-based or functional assay
[2] = target: T2, human PD-1 expressed on the cell surface (human, UniProt Q15116 fragment); assay: flow cytometry on CHO cells expressing human PD-1; unlabeled antibody, detection with anti-human IgG Fc (PE GeoMFI); x axis 'Primary Ab conc (nM)' with ticks -3 to 3, read as log10 of nM
T2 construct: also called human PD-1-CHO cells; CHO-hPD-1

[3] = target: T2, human PD-1 expressed on the cell surface; assay: flow cytometry on CHO cells expressing human PD-1; unlabeled antibody, detection with anti-human IgG Fc (PE GeoMFI); no unit in the table; x axis 'Primary Ab conc (nM)' with ticks -3 to 3, read as log10 of nM
[4] = target: T1, cyno PD-1 expressed on cells; assay: flow cytometry on CHO cells expressing cyno PD-1; unlabeled antibody, detection with anti-human IgG Fc (PE GeoMFI); no unit in the table; x axis 'Primary Ab conc (nM)' with ticks -3 to 3, read as log10 of nM
[5] = target: T1, cyno PD-1 expressed on cells; assay: flow cytometry on CHO cells expressing cyno PD-1; unlabeled antibody, detection with anti-human IgG Fc (PE GeoMFI); x axis 'Primary Ab conc (nM)' with ticks -3 to 3, read as log10 of nM

T1 sequence (B0LAJ3 entry or part of it limits assumed): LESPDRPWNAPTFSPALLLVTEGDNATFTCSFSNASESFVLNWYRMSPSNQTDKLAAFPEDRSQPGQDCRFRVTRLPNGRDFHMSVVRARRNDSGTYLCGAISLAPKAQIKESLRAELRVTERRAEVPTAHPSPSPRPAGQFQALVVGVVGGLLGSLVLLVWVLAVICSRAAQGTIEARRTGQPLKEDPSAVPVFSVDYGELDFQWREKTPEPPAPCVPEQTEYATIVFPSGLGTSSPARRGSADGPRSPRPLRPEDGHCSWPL
T2 sequence (Q15116 25-198 limits assumed): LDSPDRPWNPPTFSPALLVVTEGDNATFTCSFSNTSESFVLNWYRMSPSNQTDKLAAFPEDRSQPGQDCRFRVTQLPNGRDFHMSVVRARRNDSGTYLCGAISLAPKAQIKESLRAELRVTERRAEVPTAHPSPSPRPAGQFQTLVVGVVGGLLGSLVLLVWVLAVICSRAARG

Binder	IL-2 EC50 (nM), cyno PBMC assay, NHP1 [1] [nM]	IL-2 EC50 (nM), cyno PBMC assay, NHP2 [1] [nM]	IL-2 EC50 (nM), cyno PBMC assay, NHP3 [1] [nM]	IL-2 EC50 (nM), cyno PBMC assay, NHP4 [1] [nM]	EC50 (read off the curve) [2] [nM]	LogEC50 [3]	LogEC50 [4]	EC50 (read off the curve) [5] [nM]
B1	0.24	2.5	9.24	1.22	–	–	–	–
B2	< 0.1	1.24	16.5	1.23	–	–	–	–
B3	0.28	4.9	–	–	~3	0.431	0.806	~6
